In all, about 81,000 sequences were measured (“one-hybrid fitness for binding NBS DNA”: median about -0.1, highest 2% from about 0.36 on). The list shows a part of the results.
B1: Caulobacter ParB omega fusion; a variant is named by its letters at X, in order, B8GW30 (parent)
chain: MESVVVGEPGMSEGRRGLGRGLSALLGEVDAAPAQAPGEQLGGSREAPIEILQRNPDQPRRTFREEDLEDLSNSIREKGVLQPILVRPSPDTAGEYQIVAGERAWRAAQRAGLKTVPIMVRELDDLAVLEIGIIENVQRADLNVLEEALSYKVLMEKFERTQENIAQTIGKSXSHVANXMRLLXLPDEVQSYLVSGELTAXHARAIAAAADPVALAKQIIEGGLSVRETEALARKAPNLSAGKSKGGRPPRVKDTDTQALESDLSSVLGLDVSIDHRGSTGTLTITYATLEQLDDLCNRLTRGI

Variants of: B1
Test: one-hybrid fitness for binding NBS DNA (the Noc-binding site; scaled: cognate 1, non-cognate 0); higher = stronger binding
Settings: with NBS DNA site
In short: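 In E. coli USO, a HIS3 reporter with its site placed 19 bp from the promoter was used to select Caulobacter ParB variants randomised at four specificity codons. Growth lasted 48 hours at 37°C on histidine-free M9 containing 0.1 mM IPTG and 5 mM 3-AT. Fitness was taken as the log change in variant-to-wild-type read ratio from Illumina sequencing of pre- and post-selection plasmids, rescaled between the non-cognate and cognate sites.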

Variant | one-hybrid fitness for binding NBS DNA
STNR | ≤ 0.2
TFCS | ≤ 0.2
VFGC | ≤ 0.2
GVQW | ≤ 0.2
WVTK | ≤ 0.2
TKRE | ≤ 0.2
MNDG | ≤ 0.2
APWT | ≤ 0.2
CAIN | ≤ 0.2
GRSF | ≤ 0.2
QFAD | ≤ 0.2
KHHC | ≤ 0.2
WMNL | ≤ 0.2
PFAM | ≤ 0.2
DALY | ≤ 0.2
DPEP | ≤ 0.2
VMSV | ≤ 0.2
RYYC | ≤ 0.2
QQTT | 0.464
GGCW | ≤ 0.2
CVMG | ≤ 0.2
WRRR | 0.237
QERN | ≤ 0.2
RVEF | ≤ 0.2
NFVR | ≤ 0.2
CRQS | ≤ 0.2

Variant | one-hybrid fitness for binding NBS DNA
APSR | ≤ 0.2
PMNV | ≤ 0.2
KCSS | ≤ 0.2
ANRW | ≤ 0.2
LTPV | ≤ 0.2
LDDS | ≤ 0.2
QVTL | ≤ 0.2
CATT | ≤ 0.2
LLLA | ≤ 0.2
GTRS | ≤ 0.2
GFQC | ≤ 0.2
QNLC | ≤ 0.2
FACG | ≤ 0.2
RYCI | ≤ 0.2
KWTT | ≤ 0.2
TLVC | ≤ 0.2
MDLK | ≤ 0.2
QNIM | ≤ 0.2
TGEK | ≤ 0.2
KPLW | ≤ 0.2
DLDE | ≤ 0.2
ACIV | ≤ 0.2
DTES | ≤ 0.2
TMFG | ≤ 0.2
CAYC | ≤ 0.2
KPFS | ≤ 0.2

Variant | one-hybrid fitness for binding NBS DNA
AMGS | ≤ 0.2
CETY | ≤ 0.2
NSYR | ≤ 0.2
TWFR | ≤ 0.2
CWTR | ≤ 0.2
GCHV | ≤ 0.2
IDHG | ≤ 0.2
HGLA | ≤ 0.2
RHTE | ≤ 0.2
APRG | ≤ 0.2
TGNL | ≤ 0.2
AAPS | ≤ 0.2
TLSY | ≤ 0.2
HCHS | ≤ 0.2
SPHE | ≤ 0.2
TEID | ≤ 0.2
CPHW | ≤ 0.2
LARP | ≤ 0.2
APFG | ≤ 0.2
RHQF | ≤ 0.2
PTLH | ≤ 0.2
LYSP | ≤ 0.2
NRRK | ≤ 0.2
IYGR | ≤ 0.2
LQRC | ≤ 0.2
VVYC | ≤ 0.2

Variant | one-hybrid fitness for binding NBS DNA
TPMC | ≤ 0.2
RDNN | ≤ 0.2
ISQC | ≤ 0.2
QILK | ≤ 0.2
VRCR | 0.246
QNKF | ≤ 0.2
RSQM | ≤ 0.2
TTPW | ≤ 0.2
KARA | ≤ 0.2
AIKF | ≤ 0.2
RMHQ | ≤ 0.2
NSPY | ≤ 0.2
GRLK | ≤ 0.2
RIII | ≤ 0.2
TKWI | ≤ 0.2
CWIT | ≤ 0.2
SDTT | ≤ 0.2
AETS | ≤ 0.2
ELGS | ≤ 0.2
RHAY | ≤ 0.2
DKYR | ≤ 0.2
DKYG | ≤ 0.2
REMR | ≤ 0.2
ARQD | ≤ 0.2
PNHV | ≤ 0.2
SITS | ≤ 0.2

Variant | one-hybrid fitness for binding NBS DNA
RDCG | ≤ 0.2
LFRS | ≤ 0.2
KALS | ≤ 0.2
HRMD | ≤ 0.2
GAKA | ≤ 0.2
FDSH | ≤ 0.2
LYGF | ≤ 0.2
GCDG | ≤ 0.2
WKLT | ≤ 0.2
THGC | ≤ 0.2
FNMR | ≤ 0.2
RPKM | ≤ 0.2
VQMT | ≤ 0.2
RHYT | 0.287
KYRI | ≤ 0.2
HEGI | ≤ 0.2
GPRD | ≤ 0.2
KGTM | ≤ 0.2
DTNW | ≤ 0.2
LCDG | ≤ 0.2
SQTW | ≤ 0.2
MTAR | ≤ 0.2
QSSV | ≤ 0.2
QLWA | ≤ 0.2
TSQM | ≤ 0.2
TTEQ | ≤ 0.2

Variant | one-hybrid fitness for binding NBS DNA
APVL | ≤ 0.2
WIQS | ≤ 0.2
KSYI | ≤ 0.2
HGSF | ≤ 0.2
NKPT | ≤ 0.2
VYCL | ≤ 0.2
TTDA | ≤ 0.2
YMVS | ≤ 0.2
YLHP | ≤ 0.2
TGYR | ≤ 0.2
SSQT | ≤ 0.2
GTYD | ≤ 0.2
FKSM | ≤ 0.2
HLNP | ≤ 0.2
DSTF | ≤ 0.2
ASPM | ≤ 0.2
TDSR | 0.309
NADG | ≤ 0.2
QSCW | ≤ 0.2
AFYK | ≤ 0.2
YPPP | ≤ 0.2
AAGW | ≤ 0.2
YPNP | ≤ 0.2
